Experimental data taken from PubChem BioAssay AID686978 (National Center for Advancing Translational Sciences (NCATS), 2013).
In all, about 420,000 compounds went through this assay and about 64,000 (15%) were called active. The inconclusive results got no clear call from the source; some entries with a clear call stand among them for comparison. Calls follow the shape of the dose curve; as a rule, active = well fitted inhibition curve with a large enough effect; inconclusive = small, poorly fitted or top-dose-only effect; inactive = flat fitted curve, though single readings scatter. No potency is given beside an inconclusive call; the fits are too rough.

Assay: qHTS for Inhibitors of human tyrosyl-DNA phosphodiesterase 1 (TDP1): qHTS in cells in absence of CPT; also: nearly all actives have a fitted effect of over 55% in size
Conditions: DT40 Tdp1-/- hTDP1 cells, no CPT, ATP luminescence, 48 h; activity change, negative = growth inhibition: at 46.2 µM (top of the series) unless noted
How it was run: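 Stably hTDP1-transfected Tdp1-null chicken DT40 cells were treated with library compounds minus camptothecin and grown for at least 48 hr at 37 °C, after which cellular ATP was quantified by luminescence.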
% is scaled to controls: 0 for no effect and ±100 for the full control effect; potency is read from the fitted curve at half-maximal effect; tags tell the direction and shape of the fitted curve.

| Compound | Potency | activity change, negative = growth inhibition |
| --- | --- | --- |
| COc1cc2nc(N3CCOCC3)nc(NC3CCN(Cc4ccccc4)CC3)c2cc1OC | active: 11.2 µM |  |
| COC(=O)C1=CNC=C(C(=O)OC)C1c1cccc2ccccc12 | inconclusive [inhibitor, single point] |  |
| CC1CCn2c(nc3cc(C(=O)NCc4ccc(F)cc4)ccc32)C1 (configuration not stated) | inconclusive [inhibitor, partial curve] |  |
| CCN(CC)CCNC(=O)c1ccc(NC(=O)COc2ccc3c(c2)CCC3)cc1 | inconclusive [inhibitor, single point] |  |
| COc1ccccc1N1CCN(S(=O)(=O)c2ccc3c(c2)NC(=O)CS3)CC1 | inconclusive [inhibitor, single point] |  |
| O=C(CCCNS(=O)(=O)c1cccc2nsnc12)NCc1ccc(Cl)cc1 | inconclusive [inhibitor, single point] |  |
| CS(=O)(=O)N(CC(=O)Nc1ccc(CC#N)cc1)c1ccc(C23CC4CC(CC(C4)C2)C3)cc1 | active: 16.4 µM |  |
| Cc1ccc(F)c([C@H]2[C@H]3C=CC[C@@H](C)[C@@H]3C(=O)N2Cc2ccccc2)c1 | inconclusive [inhibitor, single point] |  |
| Cc1cccc(OCCCC(=O)Nc2nnc(C3CCCO3)s2)c1C (configuration not stated) | inconclusive [inhibitor, single point] |  |
| CC(C)(C)[C@@H]1COC(=O)[C@H](Cc2ccc(F)cc2)CC/C=C\C[C@@H](CC(=O)N(CCO)Cc2ccccc2)C(=O)N1 | active: 23.1 µM |  |
| O=C(Oc1ccc2c(c1)O/C(=C\c1ccncc1)C2=O)c1cccs1 | inconclusive [inhibitor, single point] |  |
| COc1cc(CNc2nnnn2C)ccc1OCc1c(F)cccc1Cl |  | inactive: 9.47% |
| CCCCCc1c(O)nc(SCC(=O)NCC2CCCO2)[nH]c1=O (configuration not stated) | inconclusive [inhibitor, single point] |  |
| CCN1CCN(C(c2cccs2)C(C)NC(=S)Nc2cccc(C)c2C)CC1 (configuration not stated) | inconclusive [inhibitor, single point] |  |
| Cc1cccc(NS(=O)(=O)c2cc(C(=O)NCCC3=CCCCC3)ccc2Cl)c1 | inconclusive [inhibitor, single point] |  |
| O=C(N/N=C\c1ccc2c(c1)OCO2)c1ccc(Cn2cc(Br)c([N+](=O)[O-])n2)o1 |  | inactive: -2.99% |
| COc1ccc(CN(C)C(=O)c2ccccc2Sc2ccccc2C#N)cc1OC | inconclusive [inhibitor, single point] |  |
| CCN(CC(=O)NCc1cccs1)C(=O)c1ccc(S(=O)(=O)Nc2ccccc2OC)cc1 |  | inactive: -14% |
| COc1ccc(OCC(=O)NC(=S)Nc2ccccc2F)cc1 |  | inactive: 4.14% |
| O=C(COC(=O)CCSc1ccc(Cl)cc1)Nc1ccc(F)cc1 | inconclusive [inhibitor, single point] |  |
| O=C(CC1S/C(=N/N=C/c2cccs2)NC1=O)Nc1ccc(Cl)c(Cl)c1 (configuration not stated) | inconclusive [inhibitor, single point] |  |
| C#CCNC(=O)C1=C[C@@H](C2CCCCC2)C[C@@H](OCc2ccc(CO)cc2)O1 | inconclusive [inhibitor, single point] |  |
| C[C@@H]1CCCCO[C@H](CN(C)C(=O)CCC(F)(F)F)[C@@H](C)CN([C@H](C)CO)C(=O)c2cc(NC(=O)c3ccncc3)ccc2O1 | inconclusive [inhibitor, partial curve] |  |

| Compound | Potency | activity change, negative = growth inhibition |
| --- | --- | --- |
| Cc1cccc(NC(=O)Cn2c(=O)oc3ccccc32)c1C | inconclusive [inhibitor, single point] |  |
| COCCCNc1nccn2ccnc12 |  | inactive: -2.08% |
| COc1ccc(CN2CCN(S(=O)(=O)c3ccc(F)cc3)CC2)c(OC)c1OC | inconclusive [inhibitor, partial curve] |  |
| Cc1ccc(OCCOC(=O)c2nc3nccc(C)n3n2)cc1 | inconclusive [inhibitor, single point] |  |
| CS(=O)(=O)N1CCN(c2ccccc2NC(=O)c2ccc(-c3ccc(Br)cc3)o2)CC1 | inconclusive [inhibitor, partial curve, poor fit] |  |
| CC(CNC(=O)c1cccc(Br)c1)n1cncn1 (configuration not stated) |  | inactive: 2.03% |
| COc1ccccc1N1CCN(C(=O)c2ccc(N(C)S(=O)(=O)c3ccccc3)cc2)CC1 | inconclusive [inhibitor, partial curve] |  |
| COc1ccc(OC)c(/C=N/NC(=O)c2ccc(N(C)S(=O)(=O)c3ccccc3)cc2)c1 | inconclusive [inhibitor, single point] |  |
| Cc1nc(CC(=O)O)c(-c2ccccc2)s1 |  | inactive: -2.43% |
| COC(=O)[C@@]12CCCN1[C@H](c1ccc(-c3ccc(F)cc3)cc1)[C@H]1C(=O)N(C)C(=O)[C@H]12 | inconclusive [inhibitor, single point] |  |
| CCOc1ccc(-c2nnc(SCC(=O)Nc3cc(C)on3)o2)cc1 | inconclusive [inhibitor, single point] |  |
| CC(C)C[C@@H]1COc2cc(N3CC[C@H](O)C3)ccc2S(=O)(=O)N1 |  | inactive: -5% |
| CCOc1ccccc1NC(=S)N1CCCc2ccccc21 |  | inactive: 8.66% |
| C=C(C)c1cccc(C(C)(C)NC(=O)N2CCCCC2CC)c1 (configuration not stated) | inconclusive [inhibitor, single point] |  |
| O=C1COc2ccc(S(=O)(=O)CCC(=O)N3CCN(c4cccc(Cl)c4)CC3)cc2N1 | active: 18.4 µM |  |
| COc1ccc(Br)cc1/C=N/NC(=O)C(c1ccncc1)N1CCOCC1 (configuration not stated) | active: 23.1 µM |  |
| COc1ccc(N2CC(C(=O)Nc3ccc(S(=O)(=O)N4CCOCC4)cc3)CC2=O)cc1 (configuration not stated) | inconclusive [inhibitor, partial curve] |  |
| CCOC(=O)c1ccc(S(=O)(=O)N2CCN(C(=O)C3CSC4(C)CCC(=O)N34)CC2)cc1 (configuration not stated) | inconclusive [inhibitor, single point] |  |
| CC(C)c1cccc(C(C)C)c1OC(=O)[C@H]1OC(c2ccc(Br)cc2)=C[C@@H]1c1ccc(Br)cc1 | inconclusive [inhibitor, single point] |  |
| COC(=O)c1c(C)[nH]c(C(=O)CN(C)CC(=O)Nc2cccc(F)c2)c1C | active: 14.6 µM |  |
| Cc1noc(C)c1CSCC(=O)Nc1ccc(Br)cc1Cl | active: 10.3 µM |  |
| Cc1ccc(NC(=O)CN(C)C(=O)COC(=O)c2ccc(NC(=O)CC#N)cc2)cc1 |  | inactive: 7.13% |
| Cc1cc(NS(=O)(=O)c2ccc(NC(=O)COc3ccc(Br)cc3)cc2)nc(C)n1 | inconclusive [inhibitor, single point] |  |

| Compound | Potency | activity change, negative = growth inhibition |
| --- | --- | --- |
| CC(=O)Oc1ccc(/C=N/NS(=O)(=O)c2ccccc2)cc1 | inconclusive [inhibitor, single point] |  |
| Cc1ccc(CNC(=O)CSc2nc(=O)n(Cc3ccco3)c3c2CCC3)cc1 | inconclusive [inhibitor, single point] |  |
| Cc1cccc(-c2cccc(NC(=O)C3CCCN(C(=O)c4ocnc4C)C3)c2)c1 (configuration not stated) | active: 20.6 µM |  |
| Cc1ccc(S(=O)(=O)NC(=O)C2(C)CCN2C(=O)CC2CCCCC2)nc1 (configuration not stated) |  | inactive: 0.205% |
| Cc1ccc2nc(-c3ccccc3)c(CC3CCCCC3)n2c1 | inconclusive [inhibitor, single point] |  |
| c1ccc(C(c2ccccc2)c2noc(CN3CCN(CC4CC4)CC3)n2)cc1 | inconclusive [inhibitor, single point] |  |
| NS(=O)(=O)c1ccc(NC(=O)CSc2nc3ccccc3nc2N2CCOCC2)cc1 | inconclusive [inhibitor, single point] |  |
| CCCCCC(=O)Nc1nc(C)c(-c2csc(Nc3cc(Cl)ccc3C)n2)s1 | active: 18.4 µM |  |
| COC(=O)c1ccc(NC(=O)CSc2nc(=O)cc(N)n2-c2ccccc2)cc1 | inconclusive [inhibitor, single point] |  |
| COc1ccc(NC(=O)CSc2nc3ccccc3c(=O)n2CCCN2CCC(C)CC2)c(OC)c1 | inconclusive [inhibitor, partial curve] |  |
| Cc1nn(CC(=O)NC2CCC(C)CC2)c(C)c1[N+](=O)[O-] (configuration not stated) |  | inactive: -0.202% |
| Cc1nc2c(C)cccc2cc1C(=O)N/N=C/c1ccc(N(C)C)cc1 | active: 11.6 µM |  |
| COc1cccc(CNC(=O)c2cccc(S(=O)(=O)N3CCN(c4ccc(F)cc4)CC3)c2)c1 | inconclusive [inhibitor, single point] |  |
| C(=C\c1nccc2c1[nH]c1ccccc12)/c1ccccc1 | active: 14.6 µM |  |
| Cc1cccc(NC(=O)c2n[nH]c([N+](=O)[O-])c2Br)c1C | inconclusive [inhibitor, single point] |  |
| Cc1ccc(S(=O)(=O)N2C3CCCCC3O[C@H]2CC(=O)OCc2ccccc2)cc1 (some centres not stated) | inconclusive [inhibitor, single point] |  |
| Cc1cccnc1-c1cccc2c1OC(CNC(=O)C(=O)c1ccccc1)C2 (configuration not stated) |  | inactive: -28.1% |
| Cc1cccc2c(=O)cc(C)n(Cc3ccccc3)c12 | inconclusive [inhibitor, partial curve] |  |
| CCOc1c2ccc(C(=O)N[C@H](C)C3CCCCC3)cc2nn1CCOC | active: 1.03 µM |  |
| Cc1ccc(-n2[nH]c(C)c(CCC#N)c2=O)cc1 |  | inactive: -12.2% |
| COc1ccc(C2=NC3(CCCCCC3)N(CC(=O)Nc3cccc(Cl)c3)C2=O)cc1 | inconclusive [inhibitor, single point] |  |
